# Data: the supplement of paper PMC8728848
# This is one part of the list.
# Legend:
# Assay in all cases: glycan array binding signal (z-score within array); higher = stronger binding
# Conditions in all cases: glycan notation: IUPAC condensed, linker removed
# [1] = target: Neu5Ac(a2-3)Gal(b1-4)[Fuc(a1-3)]GlcNAc
# Procedure, shortened: (§1)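 Glycan array data were curated from 3228 arrays in the Consortium for Functional Glycomics database and kept only where the protein sequence was available. Glycan names were converted to IUPAC-condensed notation, and columns mapping to the same glycan were averaged. The binding signal is a within-array Z-score, averaged across arrays of the same protein sequence at different concentrations or buffers and across linkers. Negative Z-scores can be read as non-binding.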
# [2] = target: Neu5Ac(a2-3)Gal(b1-4)[Fuc(a1-3)]GlcNAc(b1-3)Gal
# Procedure, shortened: as §1
# [3] = target: Neu5Ac(a2-3)Gal(b1-4)[Fuc(a1-3)]GlcNAc(b1-3)Gal(b1-4)GlcNAc
# Procedure, shortened: as §1
# [4] = target: Neu5Ac(a2-3)Gal(b1-4)[Fuc(a1-3)]GlcNAc(b1-3)Gal(b1-4)[Fuc(a1-3)]GlcNAc(b1-3)Gal(b1-4)[Fuc(a1-3)]GlcNAc
# Procedure, shortened: as §1
# [5] = target: Neu5Ac(a2-3)Gal(b1-4)[Fuc(a1-3)]GlcNAc(b1-6)[Gal(b1-3)]GalNAc
# Procedure, shortened: as §1
# [6] = target: Neu5Ac(a2-3)Gal(b1-4)[Fuc(a1-3)]GlcNAc(b1-6)[Neu5Ac(a2-3)Gal(b1-3)]GalNAc
# Procedure, shortened: as §1
# [7] = target: Neu5Ac(a2-3)Gal(b1-4)[Fuc(a1-3)]GlcNAc6S
# Procedure, shortened: as §1
# [8] = target: Neu5Ac(a2-3)Gal6S(b1-4)GlcNAc
# Procedure, shortened: as §1
# [9] = target: Neu5Ac(a2-3)Gal6S(b1-4)[Fuc(a1-3)]GlcNAc
# Procedure, shortened: as §1
# Neu5Ac(a2-3)GalNAc = target: Neu5Ac(a2-3)GalNAc
# Procedure, shortened: as §1
# [10] = target: Neu5Ac(a2-3)GalNAc(b1-4)GlcNAc
# Procedure, shortened: as §1
# [11] = target: Neu5Ac(a2-3)[GalNAc(b1-4)]Gal(b1-4)Glc
# Procedure, shortened: as §1
# [12] = target: Neu5Ac(a2-3)[GalNAc(b1-4)]Gal(b1-4)GlcNAc
# Procedure, shortened: as §1
# [13] = target: Neu5Ac(a2-3)[Neu5Ac(a2-6)]GalNAc
# Procedure, shortened: as §1
# Neu5Ac(a2-6)Gal = target: Neu5Ac(a2-6)Gal
# Procedure, shortened: as §1
# Neu5Ac(a2-6)Gal(b1-4)Glc = target: Neu5Ac(a2-6)Gal(b1-4)Glc
# Procedure, shortened: as §1
# [14] = target: Neu5Ac(a2-6)Gal(b1-4)GlcNAc
# Procedure, shortened: as §1
# [15] = target: Neu5Ac(a2-6)Gal(b1-4)GlcNAc(b1-2)Man(a1-3)Man(b1-4)GlcNAc(b1-4)GlcNAc
# Procedure, shortened: as §1
# [16] = target: Neu5Ac(a2-6)Gal(b1-4)GlcNAc(b1-2)Man(a1-3)[Gal(b1-4)GlcNAc(b1-2)Man(a1-6)]Man(b1-4)GlcNAc(b1-4)GlcNAc
# Procedure, shortened: as §1
# [17] = target: Neu5Ac(a2-6)Gal(b1-4)GlcNAc(b1-2)Man(a1-3)[GlcNAc(b1-2)Man(a1-6)]Man(b1-4)GlcNAc(b1-4)GlcNAc
# Procedure, shortened: as §1
# [18] = target: Neu5Ac(a2-6)Gal(b1-4)GlcNAc(b1-2)Man(a1-3)[GlcNAc(b1-2)Man(b1-4)GlcNAc(b1-2)Man(a1-6)]Man(b1-4)GlcNAc(b1-4)GlcNAc
# Procedure, shortened: as §1
# [19] = target: Neu5Ac(a2-6)Gal(b1-4)GlcNAc(b1-2)Man(a1-3)[Man(a1-6)]Man(b1-4)GlcNAc(b1-4)GlcNAc
# Procedure, shortened: as §1
# [20] = target: Neu5Ac(a2-6)Gal(b1-4)GlcNAc(b1-2)Man(a1-3)[Neu5Ac(a2-6)Gal(b1-4)GlcNAc(b1-2)Man(a1-6)]Man(b1-4)GlcNAc(b1-4)GlcNAc
# Procedure, shortened: as §1
# [21] = target: Neu5Ac(a2-6)Gal(b1-4)GlcNAc(b1-2)Man(a1-6)Man(b1-4)GlcNAc(b1-4)GlcNAc
# Procedure, shortened: as §1
# [22] = target: Neu5Ac(a2-6)Gal(b1-4)GlcNAc(b1-2)Man(a1-6)[Gal(b1-4)GlcNAc(b1-2)Man(a1-3)]Man(b1-4)GlcNAc(b1-4)GlcNAc
# Procedure, shortened: as §1
# [23] = target: Neu5Ac(a2-6)Gal(b1-4)GlcNAc(b1-2)Man(a1-6)[GlcNAc(b1-2)Man(a1-3)]Man(b1-4)GlcNAc(b1-4)GlcNAc
# Procedure, shortened: as §1
# [24] = target: Neu5Ac(a2-6)Gal(b1-4)GlcNAc(b1-2)Man(a1-6)[Man(a1-3)]Man(b1-4)GlcNAc(b1-4)GlcNAc
# Procedure, shortened: as §1
# [25] = target: Neu5Ac(a2-6)Gal(b1-4)GlcNAc(b1-3)Gal(b1-3)GlcNAc
# Procedure, shortened: as §1
# [26] = target: Neu5Ac(a2-6)Gal(b1-4)GlcNAc(b1-3)Gal(b1-4)GlcNAc
# Procedure, shortened: as §1
# [27] = target: Neu5Ac(a2-6)Gal(b1-4)GlcNAc(b1-3)Gal(b1-4)GlcNAc(b1-3)Gal(b1-4)GlcNAc
# Procedure, shortened: as §1
# [28] = target: Neu5Ac(a2-6)Gal(b1-4)GlcNAc(b1-3)Gal(b1-4)[Fuc(a1-3)]GlcNAc(b1-3)Gal(b1-4)[Fuc(a1-3)]GlcNAc
# Procedure, shortened: as §1
# [29] = target: Neu5Ac(a2-6)Gal(b1-4)GlcNAc(b1-3)GalNAc
# Procedure, shortened: as §1
# [30] = target: Neu5Ac(a2-6)Gal(b1-4)GlcNAc6S
# Procedure, shortened: as §1
# Neu5Ac(a2-6)GalNAc = target: Neu5Ac(a2-6)GalNAc
# Procedure, shortened: as §1
# [31] = target: Neu5Ac(a2-6)GalNAc(b1-4)GlcNAc
# Procedure, shortened: as §1
# [32] = target: Neu5Ac(a2-6)GlcNAc(b1-4)GlcNAc
# Procedure, shortened: as §1
# [33] = target: Neu5Ac(a2-6)GlcNAc(b1-4)GlcNAc(b1-4)GlcNAc
# Procedure, shortened: as §1
# Neu5Ac(a2-8)Neu5Ac = target: Neu5Ac(a2-8)Neu5Ac
# Procedure, shortened: as §1
# [34] = target: Neu5Ac(a2-8)Neu5Ac(a2-3)Gal(b1-4)Glc
# Procedure, shortened: as §1
# [35] = target: Neu5Ac(a2-8)Neu5Ac(a2-3)[GalNAc(b1-4)]Gal(b1-4)Glc
# Procedure, shortened: as §1
# [36] = target: Neu5Ac(a2-8)Neu5Ac(a2-8)Neu5Ac
# Procedure, shortened: as §1
# [37] = target: Neu5Ac(a2-8)Neu5Ac(a2-8)Neu5Ac(a2-3)Gal(b1-4)Glc
# Procedure, shortened: as §1
# [38] = target: Neu5Ac(a2-8)Neu5Ac(a2-8)Neu5Ac(a2-3)[GalNAc(b1-4)]Gal(b1-4)Glc
# Procedure, shortened: as §1
# [39] = target: Neu5Ac(a2-8)Neu5Ac(a2-8)Neu5Ac(a2-8)Neu5Ac(a2-3)[GalNAc(b1-4)]Gal(b1-4)Glc
# Procedure, shortened: as §1
# [40] = target: Neu5Ac(b2-6)Gal(b1-4)GlcNAc
# Procedure, shortened: as §1
# Neu5Ac(b2-6)GalNAc = target: Neu5Ac(b2-6)GalNAc
# Procedure, shortened: as §1
# [41] = target: Neu5Ac9Ac(a2-3)Gal(b1-3)GlcNAc
# Procedure, shortened: as §1
# [42] = target: Neu5Ac9Ac(a2-3)Gal(b1-4)GlcNAc
# Procedure, shortened: as §1
# [43] = target: Neu5Ac9Ac(a2-6)Gal(b1-4)GlcNAc
# Procedure, shortened: as §1
# [44] = target: Neu5Gc(a2-3)Gal(b1-3)GlcNAc
# Procedure, shortened: as §1
# [45] = target: Neu5Gc(a2-3)Gal(b1-3)[Fuc(a1-4)]GlcNAc
# Procedure, shortened: as §1
# Neu5Gc(a2-3)Gal(b1-4)Glc = target: Neu5Gc(a2-3)Gal(b1-4)Glc
# Procedure, shortened: as §1
# [46] = target: Neu5Gc(a2-3)Gal(b1-4)GlcNAc
# Procedure, shortened: as §1
# [47] = target: Neu5Gc(a2-3)Gal(b1-4)[Fuc(a1-3)]GlcNAc
# Procedure, shortened: as §1
# [48] = target: Neu5Gc(a2-6)Gal(b1-4)GlcNAc
# Procedure, shortened: as §1
# Neu5Gc(a2-6)GalNAc = target: Neu5Gc(a2-6)GalNAc
# Procedure, shortened: as §1
# [49] = target: Neu5Gc(b2-6)Gal(b1-4)GlcNAc
# Procedure, shortened: as §1
binder,measurement,setting,value
"DC-ASPGR (Homo sapiens), CLC10_HUMAN (protein) LDQNSKFQRDLVTLRTDFSNFTSNTVAEIQALTSQGSSLEETIASLKAEVEGFKQERQAVHSEMLLRVQQLVQDLKKLTCQVATLNNNASTEGTCCPVNWVEHQDSCYWFSHSGMSWAEAEKYCQLKNAHLVVINSREEQNFVQKYLGSAYTWMGLSDPEGAWKWVDGTDYATGFQNWKPGQPDDWQGHGLGGGEDCAHFHPDGRWNDDVCQRPYHWVCEAGLGQTSQESHVEPKSCDKTHTCPPCPAPELLGGPSVFLFPPKPKDTLMISRTPEVTCVVVDVSHEDPEVKFNWYVDGVEVHNAKTKPREEQFNSTYRVVSVLTVLHQDWLNGKEYKCKVSNKGLPSSIEKTISKAKGQPREPQVYTLPPSQEEMTKNQVSLTCLVKGFYPSDIAVEWESNGQPENNYKTTPPVLDSDGSFFLYSRLTVDKSRWQEGNVFSCSVMHEALHNHYTQK",glycan array binding signal (z-score),[1],-0.215
same,glycan array binding signal (z-score),[2],-0.27
same,glycan array binding signal (z-score),[3],-0.185
same,glycan array binding signal (z-score),[4],-0.181
same,glycan array binding signal (z-score),[5],0.034
same,glycan array binding signal (z-score),[6],0.645
same,glycan array binding signal (z-score),[7],-0.265
same,glycan array binding signal (z-score),[8],-0.179
same,glycan array binding signal (z-score),[9],-0.266
same,glycan array binding signal (z-score),Neu5Ac(a2-3)GalNAc,-0.134
same,glycan array binding signal (z-score),[10],-0.279
same,glycan array binding signal (z-score),[11],1.06
same,glycan array binding signal (z-score),[12],1.14
same,glycan array binding signal (z-score),[13],-0.28
same,glycan array binding signal (z-score),Neu5Ac(a2-6)Gal,-0.225
same,glycan array binding signal (z-score),Neu5Ac(a2-6)Gal(b1-4)Glc,-0.255
same,glycan array binding signal (z-score),[14],-0.236
same,glycan array binding signal (z-score),[15],-0.154
same,glycan array binding signal (z-score),[16],-0.209
same,glycan array binding signal (z-score),[17],0.448
same,glycan array binding signal (z-score),[18],-0.042
same,glycan array binding signal (z-score),[19],-0.092
same,glycan array binding signal (z-score),[20],0.389
same,glycan array binding signal (z-score),[21],-0.066
same,glycan array binding signal (z-score),[22],-0.115
same,glycan array binding signal (z-score),[23],-0.153
same,glycan array binding signal (z-score),[24],-0.05
same,glycan array binding signal (z-score),[25],-0.219
same,glycan array binding signal (z-score),[26],-0.23
same,glycan array binding signal (z-score),[27],-0.27
same,glycan array binding signal (z-score),[28],-0.319
same,glycan array binding signal (z-score),[29],0.14
same,glycan array binding signal (z-score),[30],-0.117
same,glycan array binding signal (z-score),Neu5Ac(a2-6)GalNAc,1.36
same,glycan array binding signal (z-score),[31],1.09
same,glycan array binding signal (z-score),[32],-0.141
same,glycan array binding signal (z-score),[33],-0.064
same,glycan array binding signal (z-score),Neu5Ac(a2-8)Neu5Ac,-0.131
same,glycan array binding signal (z-score),[34],-0.223
same,glycan array binding signal (z-score),[35],1.71
same,glycan array binding signal (z-score),[36],-0.096
same,glycan array binding signal (z-score),[37],-0.244
same,glycan array binding signal (z-score),[38],0.973
same,glycan array binding signal (z-score),[39],1.03
same,glycan array binding signal (z-score),[40],-0.157
same,glycan array binding signal (z-score),Neu5Ac(b2-6)GalNAc,-0.194
same,glycan array binding signal (z-score),[41],-0.192
same,glycan array binding signal (z-score),[42],-0.099
same,glycan array binding signal (z-score),[43],-0.235
same,glycan array binding signal (z-score),[44],-0.3
same,glycan array binding signal (z-score),[45],-0.188
same,glycan array binding signal (z-score),Neu5Gc(a2-3)Gal(b1-4)Glc,-0.215
same,glycan array binding signal (z-score),[46],-0.231
same,glycan array binding signal (z-score),[47],-0.224
same,glycan array binding signal (z-score),[48],-0.279
same,glycan array binding signal (z-score),Neu5Gc(a2-6)GalNAc,-0.263
same,glycan array binding signal (z-score),[49],-0.266
